Screen size: about 410,000 compounds; about 6,400 (1.6%) were called active. Inconclusive means that the source gave no clear call. Such entries were picked first, then a sample of the others. Calls follow the shape of the dose curve; as a rule, active = well fitted inhibition curve with a large enough effect; inconclusive = small, poorly fitted or top-dose-only effect; inactive = no such curve, though single readings can be large or run the other way. Potencies of inconclusive entries are left out as doubtful fits.
Each compound was assayed against Glucagon-like peptide 1 receptor (Homo sapiens) (UniProt P43220) (assay: qHTS of GLP-1 Receptor Inverse Agonists (Inhibition Mode)). Settings: HEK293 GLP-1R CRE-luciferase, luminescence, 24 h, GLP-1R form is constitutively active; series mostly up to 38.3 µM.
Sequence of UniProt P43220 (P43220 whole entry, looked up): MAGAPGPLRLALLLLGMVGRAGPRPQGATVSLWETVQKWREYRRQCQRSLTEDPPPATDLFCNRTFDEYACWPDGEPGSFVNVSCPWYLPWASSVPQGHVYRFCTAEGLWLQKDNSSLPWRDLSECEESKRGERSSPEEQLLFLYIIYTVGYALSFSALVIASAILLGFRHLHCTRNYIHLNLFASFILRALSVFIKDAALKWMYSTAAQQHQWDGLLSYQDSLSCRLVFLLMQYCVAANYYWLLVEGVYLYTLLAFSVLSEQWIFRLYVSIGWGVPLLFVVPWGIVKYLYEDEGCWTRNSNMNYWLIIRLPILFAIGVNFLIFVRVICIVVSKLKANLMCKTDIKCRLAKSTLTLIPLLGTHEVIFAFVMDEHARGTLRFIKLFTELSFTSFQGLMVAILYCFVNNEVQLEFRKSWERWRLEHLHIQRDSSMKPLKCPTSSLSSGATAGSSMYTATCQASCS
Procedure, shortened: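 HEK293 cells stably co-expressing constitutively active GLP-1R and a cAMP-responsive luciferase reporter were seeded in DMEM with 10% Nu serum, given compounds after 12 h, and incubated 24 h at 37 deg C. Luminescence was then read.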
With `O=C(c1ccc(=O)oc1)N1CCC(C(O)(c2ccccc2)c2ccccc2)CC1` the Potency was inconclusive [inhibitor, partial curve, poor fit]. In the case of `COc1cc(-c2cc(=O)c3c(O)c(OC)c(OC)c(O)c3o2)ccc1O`, the Potency is reported as “inactive”. With `CC(=O)OC[C@H]1O[C@@H](n2ncc(=O)[nH]c2=O)[C@H](OC(C)=O)[C@@H]1OC(C)=O` the Potency was inconclusive [inhibitor, full curve, poor fit]. For `CCN(CC)c1ccc(NC(=O)CN(C)S(=O)(=O)c2cccc3nsnc23)c(C)c1`, the Potency was inconclusive [inhibitor, single point]. In the case of `Cc1ccc(S(=O)(=O)N2CCCCC2)cc1NC(=O)CSc1nnc(C2CC2)n1C`, the Potency is reported as “inactive”. `CCOC(=O)Cc1csc(NC(=O)COc2ccc(N(C)S(=O)(=O)c3ccc(C)cc3)cc2)n1` was tested, and the Potency was inconclusive [inhibitor, partial curve, poor fit]. For `COc1ccc(-c2cc(C)no2)cc1S(=O)(=O)N1CCN(c2ccccn2)CC1`, the Potency was “inactive”. In the case of `COC(=O)c1c(C)[nH]c(C)c1-c1ccc([N+](=O)[O-])cc1`, the Potency is reported as inconclusive [inhibitor, single point]. For `CCOc1ccc(CCNC(=O)CSc2nc3ccccc3nc2Cc2ccc(C)cc2)cc1OCC`, the Potency was “inactive”. For `COc1cccc(-c2noc(C(C)n3nc(C)c([N+](=O)[O-])c3C)n2)c1` (stereo unspecified), the Potency was inconclusive [inhibitor, single point]. For `CC(C)CCOc1ccc(Cn2c(=O)sc3ccccc32)cc1`, the Potency was inconclusive [inhibitor, single point]. `CN(CC(=O)Nc1ccccc1Br)C(=O)c1sccc1-c1ccccc1` was tested, and the Potency was inconclusive [inhibitor, partial curve]. In the case of `O=C(C/C=N/OCc1ccc(Cl)cc1)c1cnc(-c2ccccc2)s1`, the Potency is reported as inconclusive [inhibitor, single point]. In the case of `Cc1cccc(OCC(=O)N(Cc2cccs2)C2CCS(=O)(=O)C2)c1C` (stereo unspecified), the Potency is reported as inconclusive [inhibitor, partial curve]. In the case of `O=C(Nc1ccc2ccccc2n1)C1CCCCC1`, the Potency is reported as inconclusive [inhibitor, single point]. For `COc1c(C)cccc1C(=O)Nc1ccc(Cl)c(-c2nc3cc(C)ccc3o2)c1`, the Potency was inconclusive [inhibitor, single point]. With `Cc1ccc(NC(=O)c2ccc(-n3cncn3)c([N+](=O)[O-])c2)cc1F` the Potency was inconclusive [inhibitor, single point]. In the case of `O=C(Nc1ccn(CCCN2CCN(Cc3cccc4ccccc34)CC2)c(=O)n1)OCc1ccccc1`, the Potency is reported as active: 7.94 µM. In the case of `CC1CN(CCOc2ccccc2-c2ccccc2)CC(C)O1` (stereo unspecified), the Potency is reported as inconclusive [inhibitor, partial curve, poor fit]. `O=C(O)CSCC(=O)Nc1ccc(C2CCCCC2)cc1` was tested, and the Potency was inconclusive [inhibitor, full curve, poor fit]. For `C#CCN1C=CC(=O)[C@@H](OC(=O)Nc2ccc(Br)cc2)[C@H]1c1ccccc1Br`, the Potency was inconclusive [inhibitor, single point]. In the case of `CC(C)c1ccc(NC(=O)CSc2ncnc3c2sc2ccccc23)cc1`, the Potency is reported as “inactive”. For `CCN1CCN(c2ncc(C(=O)Nc3cc(Cl)ccc3OC)c3ccccc23)CC1`, the Potency was active: 1.78 µM. In the case of `CCN(C(=O)CSc1nc2ccccc2n1CCc1ccccc1)C1CCS(=O)(=O)C1` (stereo unspecified), the Potency is reported as inconclusive [inhibitor, single point]. In the case of `Cc1cc(C)nc(N/N=C/c2cc(Br)ccc2O)n1`, the Potency is reported as inconclusive [inhibitor, full curve, poor fit]. For `Cn1ccnc1SCC(=O)N1CCc2ccccc21`, the Potency was “inactive”. In the case of `COc1ccccc1Oc1ccc2c(c1)C(=O)N(c1cccc3ncccc13)C2=O`, the Potency is reported as inconclusive [inhibitor, partial curve, poor fit]. In the case of `O=C(c1ccc2c3c(cccc13)CC2)C1CCCN(Cc2ccc(OCCO)cc2)C1` (stereo unspecified), the Potency is reported as inconclusive [inhibitor, partial curve, poor fit]. In the case of `COc1cccc(CNC(=O)CCn2ccc3cc(S(=O)(=O)N4CCC(C)CC4)ccc32)c1`, the Potency is reported as inconclusive [inhibitor, single point]. For `COc1ccc(NC(=O)CN2CCN(c3nc(-c4cccc(OC)c4)cs3)CC2)cc1`, the Potency was inconclusive [inhibitor, partial curve, poor fit]. In the case of `COc1ccc(Cl)cc1NC(=O)N1CCC(C)CC1`, the Potency is reported as inconclusive [inhibitor, partial curve, poor fit]. For `CCC(C)c1ccccc1N1CC(C(=O)NCCC2=CCCCC2)CC1=O` (stereo unspecified), the Potency was inconclusive [inhibitor, single point]. In the case of `O/N=C\c1ccccc1Oc1ccc(F)cc1`, the Potency is reported as inconclusive [inhibitor, single point]. In the case of `O=C(CCl)Nc1cccc2ncccc12`, the Potency is reported as “inactive”. With `O=C(CN1CCN(c2ccc(F)cc2)CC1)NCc1ccc(F)cc1` the Potency was inconclusive [inhibitor, partial curve, poor fit]. In the case of `S=C(NCCc1cccc(Cl)c1)NC1CCCCC1`, the Potency is reported as inconclusive [inhibitor, partial curve, poor fit]. `CCCNC(=O)NC(=O)CSc1cccc(C(F)(F)F)c1` was tested, and the Potency was inconclusive [inhibitor, single point]. With `CCN(CC)S(=O)(=O)c1ccc(Cl)c(NC(=O)COC(=O)/C=C/c2cc(OC)c(OC)c(OC)c2)c1` the Potency was inconclusive [inhibitor, partial curve, poor fit]. In the case of `CC1CC(C)(C)CC2(C1)NC(=O)N(CC(=O)N(Cc1ccccc1)c1ccccc1)C2=O` (stereo unspecified), the Potency is reported as inconclusive [inhibitor, partial curve, poor fit]. With `Cc1ccc(NC(=O)C2CC(=O)n3c(nc4ccccc43)N2)cc1C` (stereo unspecified) the Potency was “inactive”. For `O=C(N/N=C/c1ccc2c(c1)OCO2)/C(=C/c1ccc2c(c1)OCO2)NC(=O)c1ccccc1`, the Potency was inconclusive [inhibitor, partial curve].
Also: nearly all actives have a fitted effect of over 55% in size.
Potency is read from the fitted curve at half-maximal effect; tags tell the direction and shape of the fitted curve.
